Measurements published in PubChem BioAssay AID1346428 (National Center for Advancing Translational Sciences (NCATS), 2018).
Among all 48,000 compounds or so, about 1,200 (2.5%) were called active. Not shown: some 2% with an inconclusive outcome.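 The calls were made as follows: active = activation of at least 60% and not above a set upper limit (about 1 call in 100 departs from these limits); inconclusive = activation of 40% to 60%, or above that upper limit; inactive = activation under 40%.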 Some of the results follow.

Target: Probable G-protein coupled receptor 32 (Homo sapiens) (UniProt O75388)
Chain of UniProt O75388 (O75388 whole entry, looked up): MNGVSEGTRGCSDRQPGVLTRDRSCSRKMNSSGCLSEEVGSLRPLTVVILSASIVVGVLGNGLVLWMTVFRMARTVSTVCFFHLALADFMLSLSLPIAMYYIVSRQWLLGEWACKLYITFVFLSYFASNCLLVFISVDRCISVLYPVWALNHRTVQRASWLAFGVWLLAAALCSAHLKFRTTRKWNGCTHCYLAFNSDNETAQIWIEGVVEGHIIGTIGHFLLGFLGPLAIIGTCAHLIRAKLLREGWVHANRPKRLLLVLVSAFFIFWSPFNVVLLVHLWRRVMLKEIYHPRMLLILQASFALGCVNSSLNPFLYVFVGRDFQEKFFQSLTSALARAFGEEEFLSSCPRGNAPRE
Test: qHTS for Agonists of Human Resolvin D1 Receptor DRV1; also: 0% is about no effect
Conditions: CHO-K1 GPR32 beta-arrestin PathHunter luminescence, 90 min; at 76.9 µM; active compounds read high; zero percent set by DMSO-only wells
How it was run: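 Beta-arrestin recruitment read-out: luminescence from complemented beta-Gal in CHO-K1 GPR32 PathHunter cells, measured 1 h after detection reagent at ambient temperature following 90 min compound exposure at 37 °C; DMSO served as basal (EC0) control.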

activation, inactive:
CCCSCCCNC(=O)C1CCN(c2nc3ccccc3nc2C(F)(F)F)CC1 0.748%, CCCCn1cnc2cc(NCc3ccccc3Cl)ccc21 -67.9%, COc1ccc(-c2[nH]c(-c3ccc(Cl)cc3)nc2SCC(=O)NCC2CCCO2)cc1 (stereo not drawn) -32.9%, Cc1cccc(/C=C/c2onc(C)c2S(=O)(=O)N2CCC(C(=O)N3CCCCC3)CC2)c1 -18.3%, Cc1ccc(NC(=O)C(=O)NCC(c2cccnc2)N2CCN(Cc3ccccc3)CC2)cc1F (stereo not drawn) 19%, Cc1ccc(-n2ncc3c(Nc4cccc(C(=O)O)c4)ncnc32)cc1 -6.61%, O=C(CCS(=O)(=O)c1cc(Br)cc2c1N(C(=O)C1CC1)CC2)N1CCN(c2cccc(Cl)c2)CC1 -5.11%, COc1ccc(-c2nc3ccccc3n3c(-c4cccc(C)c4)c4c(=O)n(C)c(=O)n(C)c4c23)cc1OC -8.54%, CCC(C)NC(=O)c1c(C)oc2ncn(CC(C)C)c(=O)c12 (stereo not drawn) -6.76%, CCC(=O)N1CCc2cc(S(=O)(=O)NC(C(=O)NCCc3ccc(OC)c(OC)c3)C(C)C)ccc21 (stereo not drawn) -6.35%, Cc1cc(C)c(NC(=O)c2nc3ccccc3nc2N2CCCCC2)c(C)c1 4.08%, CCCCNC(=O)C1CCC(Cn2c(=O)c3sccc3n(Cc3ccccc3)c2=O)CC1 (stereo not drawn) -1.73%, Nc1ccc(-c2ccc3ccccc3n2)cc1 10.2%, O=C(Cn1c(=O)n(CCc2ccccc2)c(=O)c2cccnc21)Nc1ccc(F)cc1 -9.65%, CCOc1ccccc1OCC1CNCCO1 (stereo not drawn) -4.17%, COc1cc(NC(=O)C2CCN(C(=O)c3sc4nc[nH]c(=O)c4c3C)CC2)cc(OC)c1OC -10.5%, Cc1cc(C(=O)N2CCN(c3ccccc3)CC2)c2c(C)nn(-c3cccc(F)c3)c2n1 -11.2%, CCCCNC(=O)CSc1nc2cc3c(cc2c(=O)n1CCCC(=O)NCCc1ccc(OC)c(OC)c1)OCO3 -10.9%, Cc1ccc(N2C(=O)c3n[nH]c(C)c3C2c2ccc(Cl)cc2)cc1 (stereo not drawn) 43.7%, Cc1ccc(NC(=O)Cn2nc(C(F)(F)F)c3c2CCCC3)cc1C 15%, Cc1cc(C)cc(NC(=O)CSc2oc(-c3ccccc3)nc2S(=O)(=O)c2ccc(Cl)cc2)c1 -10.6%, CCOC(=O)c1ccccc1NC(=O)Cn1ncc2c1-c1ccccc1OC2 -6.09%, CCOC(=O)c1[nH]c2c(c1Cc1ccccc1OC)C(=O)CC(c1ccc(OC)cc1)C2 (stereo not drawn) -22.7%
